From the supplement of paper PMC3334620
In all, about 33,000 sequences were measured (“E-score (-0.5 to 0.5)”: median about -0.054, highest 2% from about 0.39 on). This is one part of the list.

Target: Ylr278c (UniProt Q05854)
Assay: PBM E-score (8-mer binding enrichment) (E-score (-0.5 to 0.5)); higher = stronger / more preferred TF binding; most listed sequences are background and not binding sites
Conditions: protein concentration: 200 nM; construct: GST-DNA-binding domain
Protocol: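 Universal 'all 10-mer' protein binding microarrays (Agilent AMADID 015681) probed with GST-tagged S. cerevisiae TFs (full-length or DBD) made by in vitro transcription/translation (PURExpress), about 100-200 nM. Bound TF was detected with fluorescent anti-GST. Each ungapped 8-mer (which stands for itself and its reverse complement) is scored by the PBM enrichment score (E-score), a modified Wilcoxon-Mann-Whitney statistic from -0.5 to +0.5, computed with the Universal PBM Analysis Suite. Scale: above 0.35 generally sequence-specific binding.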

Sequence	PBM E-score
AGCCGCTG	-0.0241
ACCCGTGA	-0.0929
CACCTTCA	-0.104
ACCACACC	0.0111
CTGCTAAC	-0.243
AAGGAGGT	-0.0384
GGGACCCC	-0.00447
ACCATCCC	0.0938
CTTCCCTA	-0.0804
ACTCCAAA	-0.118
AGTTGCCA	-0.145
CCTGTCGA	-0.217
CTGGTAAC	-0.0766
AAAATGAG	-0.0983
CACAGGGG	-0.233
CACTGTGC	-0.0342
AATGACGG	0.174
TGCGAACA	0.0112
GGGGAAGA	-0.165
ATCGCTAG	-0.114
CTTAAAAC	0.0315
CATTAAAG	-0.175
CGCCGGCG	0.463
CGCTAGAC	-0.186
AATCGGGT	0.176

Sequence	PBM E-score
ACAACACC	-0.0493
GTCTCGCA	-0.248
GAAGTACC	0.0915
GGCCCCCC	-0.0188
GAAATAGA	0.00766
CAGTCGTA	-0.156
ACATAGGC	-0.00235
CCGATGTA	0.238
CTTCTACC	-0.168
ATAGCCAC	-0.15
TATAGAAA	-0.181
AAAGTACC	-0.0575
AGACCGTC	-0.0135
CCTCCGCG	0.416
GTTCGCAA	-0.0313
AATATCAG	-0.154
ACTATAGT	-0.0176
CTGCGGGC	0.276
CTGCGGCC	0.2
GCGTCACC	-0.148
CAGAAACG	0.0223
CTGAAATA	-0.122
AACCTTCC	0.0498
ATCGAAAA	-0.129
AAAGTTTA	0.0725

Sequence	PBM E-score
TAATTACA	-0.0706
CGGGCGCA	0.138
GATGAAAC	0.0107
AAGGCCTG	-0.219
AGCGGGGC	0.165
ACCATACG	-0.0843
AGCGAATG	-0.153
GGTTTACA	0.0578
AAACATGC	-0.0927
AGTAACGC	-0.149
ATTAGCTG	-0.147
ATCCAAAA	0.0091
GCTTCAGA	-0.163
CCATAAGA	-0.0653
CTCATGAG	-0.295
GAACTAGC	-0.105
AACGTTTC	-0.256
CAGTAAAG	-0.15
GGACGACA	0.0893
CGCAGAAA	0.0305
GGTAGTGA	-0.00488
ATTGGCCC	-0.211
CCGCGGAC	0.429
AACTTAAA	-0.205
ATACTACA	0.0379

Sequence	PBM E-score
CACCAGCG	0.042
AATGAGAG	-0.233
AACACTGT	-0.166
GACGGAAA	0.35
CTTGCCCA	-0.209
AGTCAGTG	-0.216
AGGAAACC	0.0384
ACACGGGG	0.226
AAATTTCG	0.0227
AGCAGCCT	-0.33
CCGTAAAA	0.191
GGGTAAAA	0.145
TCGTCTCA	-0.195
GCATTCGA	0.0187
CAGCAAAA	-0.152
CCCCCGCG	0.285
CTCTTACC	0.0788
CACCAACG	0.0218
AAAGCTAC	-0.229
CTCCTCTA	-0.261
CACCTATA	-0.241
AGACGTCG	-0.0911
GACGGTAA	0.127
CTCCAATA	0.138
CAATTAGG	0.0143

Sequence	PBM E-score
ACAAAGGA	-0.00647
ATCGGCCG	0.358
GAAGCGAA	-0.0949
ATGATTAA	-0.0907
TCACACGA	-0.0855
ACAGACTG	-0.175
ACATTCGT	-0.165
AGTATCGG	0.253
GCCCTGAC	-0.255
TACACTGA	-0.181
GTAAAGAC	-0.0608
CACTGAGC	-0.136
GTGAGAAC	-0.12
AGGGATCA	-0.181
ATTAATTC	0.206
AGCAACCC	-0.103
CCCTCAAA	-0.094
AACGGGGT	0.095
CGGAAACC	0.338
ACAAATGC	0.0458
AGAAAACA	0.0327
AAAGGACA	-0.152
TAGCCGCA	0.041
GTCATGGA	-0.16
CGGTATAA	0.165

Sequence	PBM E-score
AACAGATT	-0.095
AAGCCGTG	0.00789
CGGGTTTC	0.363
AGGCCTAC	-0.167
ATATCCTG	-0.228
CGGTTAAC	0.08
CATCGTTA	-0.149
GACCTCAC	-0.06
TCCCAGCA	0.0439
CATTGTGG	-0.0447
ATTCATTA	-0.00812
AAAACGCC	0.247
GAGGGCCA	-0.0537
CTGTTGCA	0.109
AGACTGGC	-0.245
ACCTCTTC	-0.00604
GCTATCTA	-0.13
GGCTTACC	-0.0346
AAAACACT	-0.0393
CTTCACTC	0.00394
CGTTAAGC	-0.051
AGGCCCTC	-0.0303
AACGAGAT	-0.0713
CCAAGTAC	-0.112
AGAACGTC	-0.21

Sequence	PBM E-score
GATTCTCA	-0.0742
ACCTGCGC	0.19
AGGGACGC	-0.315
AGGCATCG	-0.0932
GAACGTAA	-0.0134
CCCTAACA	-0.141
AAGCTGTC	-0.128
GAGTCTGC	-0.21
CAGCCTTC	-0.156
GTACTGGA	-0.156
AGTCCCGC	0.225
ACGTTGGA	-0.299
CAATGACA	-0.241
CTACAGCA	-0.214
GAGACCAA	0.0642
AATTAAGA	-0.156
GATCTTCA	0.0678
ACTAAAAA	0.158
GCCTTTTA	-0.183
CTCGAAAG	-0.0372
ACTCCCAA	0.0108
CGTTCTAG	-0.128
